Binding data for four molecules are collected here from publication PMC4764768.

By UniProt entry, the sequences of proteins in these tests, tags left out.
UniProt P03126: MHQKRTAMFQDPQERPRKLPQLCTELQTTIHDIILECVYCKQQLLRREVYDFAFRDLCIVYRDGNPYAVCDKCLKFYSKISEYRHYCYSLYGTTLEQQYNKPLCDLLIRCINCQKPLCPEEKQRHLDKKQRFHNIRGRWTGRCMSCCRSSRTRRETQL
UniProt Q5K651: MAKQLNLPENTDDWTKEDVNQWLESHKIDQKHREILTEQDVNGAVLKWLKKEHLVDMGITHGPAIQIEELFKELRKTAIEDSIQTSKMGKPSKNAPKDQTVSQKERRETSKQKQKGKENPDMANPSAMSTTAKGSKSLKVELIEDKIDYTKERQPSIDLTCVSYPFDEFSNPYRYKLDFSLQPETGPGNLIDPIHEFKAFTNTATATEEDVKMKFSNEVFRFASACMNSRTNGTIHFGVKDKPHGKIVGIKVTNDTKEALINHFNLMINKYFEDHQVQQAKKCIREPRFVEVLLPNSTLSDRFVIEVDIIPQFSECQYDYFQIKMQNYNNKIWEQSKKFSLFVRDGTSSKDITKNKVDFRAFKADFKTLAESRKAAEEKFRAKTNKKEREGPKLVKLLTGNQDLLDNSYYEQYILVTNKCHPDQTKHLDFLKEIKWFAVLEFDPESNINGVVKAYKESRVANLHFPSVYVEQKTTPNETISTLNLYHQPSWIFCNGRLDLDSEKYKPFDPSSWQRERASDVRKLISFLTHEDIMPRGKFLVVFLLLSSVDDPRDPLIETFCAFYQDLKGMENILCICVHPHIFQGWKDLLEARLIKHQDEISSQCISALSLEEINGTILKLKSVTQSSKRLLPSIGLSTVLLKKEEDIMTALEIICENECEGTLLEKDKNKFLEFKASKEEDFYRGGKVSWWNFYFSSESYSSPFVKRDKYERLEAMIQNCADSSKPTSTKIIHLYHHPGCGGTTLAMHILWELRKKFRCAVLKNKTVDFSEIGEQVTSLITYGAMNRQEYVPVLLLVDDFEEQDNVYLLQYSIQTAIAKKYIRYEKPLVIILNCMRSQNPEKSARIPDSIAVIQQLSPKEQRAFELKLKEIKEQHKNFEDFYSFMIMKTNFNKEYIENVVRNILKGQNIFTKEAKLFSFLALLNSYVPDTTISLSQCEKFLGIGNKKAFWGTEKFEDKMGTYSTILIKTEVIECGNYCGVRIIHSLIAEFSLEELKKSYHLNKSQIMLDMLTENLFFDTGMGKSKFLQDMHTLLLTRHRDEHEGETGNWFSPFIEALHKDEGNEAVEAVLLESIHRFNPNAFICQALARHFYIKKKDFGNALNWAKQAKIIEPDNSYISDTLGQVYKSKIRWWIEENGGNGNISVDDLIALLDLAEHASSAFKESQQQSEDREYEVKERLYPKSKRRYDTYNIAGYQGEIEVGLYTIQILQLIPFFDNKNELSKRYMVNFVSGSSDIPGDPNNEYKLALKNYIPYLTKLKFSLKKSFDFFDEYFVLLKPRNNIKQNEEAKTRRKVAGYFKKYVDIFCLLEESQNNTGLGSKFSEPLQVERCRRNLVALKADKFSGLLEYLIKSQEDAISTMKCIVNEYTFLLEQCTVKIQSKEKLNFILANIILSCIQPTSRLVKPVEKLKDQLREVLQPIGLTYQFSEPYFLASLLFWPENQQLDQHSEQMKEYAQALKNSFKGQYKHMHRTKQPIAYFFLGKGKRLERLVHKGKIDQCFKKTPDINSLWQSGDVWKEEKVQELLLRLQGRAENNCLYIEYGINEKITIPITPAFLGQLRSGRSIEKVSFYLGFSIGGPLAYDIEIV

No constants are given. Whether binding was seen depends on the method and setting. Binding seen in cells or lysates may run through a third protein. Some results given as binding are weak or reduced against the parent protein; the word gives no strength. For some of these results: Sequences can lack the tags named with a protein.

Test [1] addresses T1, HA-6E6 (N-terminal HA-tagged HPV-6 E6) in HEK293 cells (human papillomavirus type 6 (6b)) (UniProt P06462).
T1 sequence: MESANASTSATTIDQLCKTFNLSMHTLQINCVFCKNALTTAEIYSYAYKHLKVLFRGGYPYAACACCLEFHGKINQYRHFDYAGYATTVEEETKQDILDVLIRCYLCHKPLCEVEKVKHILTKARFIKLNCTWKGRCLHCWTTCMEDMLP
Nature of the test: co-IP.

The target in test [2] is T2, HA-11E6 (N-terminal HA-tagged HPV-11 E6) in HEK293 cells (human papillomavirus type 11) (UniProt P04019).
T2 sequence: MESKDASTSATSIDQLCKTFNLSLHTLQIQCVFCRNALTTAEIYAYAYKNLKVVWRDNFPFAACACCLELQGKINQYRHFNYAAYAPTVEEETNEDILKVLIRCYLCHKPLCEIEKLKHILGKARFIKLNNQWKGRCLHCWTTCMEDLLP
As to the kind of experiment: co-IP.

In test [3] the target is T3, HA-6E6 (HA-tagged HPV-6 E6) in N/TERT-1 keratinocytes (human papillomavirus type 6 (6b)) (UniProt P06462).
T3 sequence: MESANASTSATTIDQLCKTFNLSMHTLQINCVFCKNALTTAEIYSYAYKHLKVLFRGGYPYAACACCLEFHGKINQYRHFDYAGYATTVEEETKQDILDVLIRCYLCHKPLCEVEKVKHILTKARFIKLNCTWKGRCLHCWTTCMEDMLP
Nature of the test: proximity ligation.

Test [4] deals with HA-16E6 (HA-tagged HPV-16 E6) in N/TERT-1 keratinocytes (human papillomavirus type 16) (UniProt P03126). As to the kind of experiment: proximity ligation.
Test [5] concerns the target T4, HA-11E6 (HA-tagged HPV-11 E6) in N/TERT-1 keratinocytes (human papillomavirus type 11) (UniProt P04019).
T4 sequence: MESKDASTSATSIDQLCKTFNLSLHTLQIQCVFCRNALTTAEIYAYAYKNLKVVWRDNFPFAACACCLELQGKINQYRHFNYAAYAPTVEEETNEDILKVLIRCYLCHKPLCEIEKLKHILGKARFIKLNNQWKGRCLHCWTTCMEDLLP
Nature of the test: proximity ligation.

Test [6] concerns the target T5, HA-11E6 (HA-tagged HPV-11 E6) in N/TERT-1 keratinocytes (human papillomavirus type 11), P04019.
T5 chain: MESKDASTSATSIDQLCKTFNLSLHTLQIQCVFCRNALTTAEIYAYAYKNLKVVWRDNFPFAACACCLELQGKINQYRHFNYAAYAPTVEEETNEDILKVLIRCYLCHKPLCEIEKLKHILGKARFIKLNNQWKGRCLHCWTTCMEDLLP
As to the kind of experiment: proximity ligation. Conditions: remark: other sources report otherwise.

With “sterile α motif domain containing 9 (SAMD9), endogenous in HEK293 cells (from UniProt Q5K651 1-1589)”, the binding entry in test [1] and in test [2] was “binds” each time.

“E6 associated protein (E6AP), endogenous in N/TERT-1 keratinocytes (from UniProt Q05086 1-875)”: in test [3], the binding result is recorded as “binds”. As to “sterile α motif domain containing 9 (SAMD9), endogenous in N/TERT-1 keratinocytes (from UniProt Q5K651 1-1589)”, the results for the binding result in test [3], in test [4] and in test [5] were “binds”, “no binding” and “binds”, respectively.

B1: E6 associated protein (E6AP), endogenous in N/TERT-1 keratinocytes, Q05086 1-875 (protein)
chain: MEKLHQCYWKSGEPQSDDIEASRMKRAAAKHLIERYYHQLTEGCGNEACTNEFCASCPTFLRMDNNAAAIKALELYKINAKLCDPHPSKKGASSAYLENSKGAPNNSCSEIKMNKKGARIDFKDVTYLTEEKVYEILELCREREDYSPLIRVIGRVFSSAEALVQSFRKVKQHTKEELKSLQAKDEDKDEDEKEKAACSAAAMEEDSEASSSRIGDSSQGDNNLQKLGPDDVSVDIDAIRRVYTRLLSNEKIETAFLNALVYLSPNVECDLTYHNVYSRDPNYLNLFIIVMENRNLHSPEYLEMALPLFCKAMSKLPLAAQGKLIRLWSKYNADQIRRMMETFQQLITYKVISNEFNSRNLVNDDDAIVAASKCLKMVYYANVVGGEVDTNHNEEDDEEPIPESSELTLQELLGEERRNKKGPRVDPLETELGVKTLDCRKPLIPFEEFINEPLNEVLEMDKDYTFFKVETENKFSFMTCPFILNAVTKNLGLYYDNRIRMYSERRITVLYSLVQGQQLNPYLRLKVRRDHIIDDALVRLEMIAMENPADLKKQLYVEFEGEQGVDEGGVSKEFFQLVVEEIFNPDIGMFTYDESTKLFWFNPSSFETEGQFTLIGIVLGLAIYNNCILDVHFPMVVYRKLMGKKGTFRDLGDSHPVLYQSLKDLLEYEGNVEDDMMITFQISQTDLFGNPMMYDLKENGDKIPITNENRKEFVNLYSDYILNKSVEKQFKAFRRGFHMVTNESPLKYLFRPEEIELLICGSRNLDFQALEETTEYDGGYTRDSVLIREFWEIVHSFTDEQKRLFLQFTTGTDRAPVGGLGKLKMIIAKNGPDTERLPTSHTCFNVLLLPEYSSKEKLKERLLKAITYAKGFGML
B1: in test [6], the binding entry was “binds”.
